In a collection of fitness landscapes (doi:10.1038/s41467-024-54723-y) one finds TetR repression strength data, which are given here for 102 sequences.

Over roughly 18,000 sequences, “TetR repression strength (sort-seq, GFP reporter)” has its median near 0.23; the highest 2% begin near 0.68. The list shows a part of the results.

This assay has as its target TetR (class B, Tn10) (UniProt P04483). Kind of assay: TetR repression strength (sort-seq, GFP reporter) (relative to tetO2 = 1); higher = stronger repression. As to conditions: E. coli. A digest of the protocol: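 Repression strength was calculated by subtracting the read-weighted mean bin from the top bin index plus one and dividing by the unaltered operator's value. The plasmid library was low-copy in E. coli SIG10-MAX, with eight randomized operator positions between a constitutive promoter and sfGFP and constitutive TetR. Cultures grew 5 h at 37 °C in LB containing 50 µg/mL chloramphenicol before 10^6 cells were sorted by FACS into 13 fluorescence bins, each sequenced on Illumina. Three independent transformations were averaged for members having ≥30 reads in all replicates and a CV ≤0.5.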
Chain of UniProt P04483 (P04483 whole entry): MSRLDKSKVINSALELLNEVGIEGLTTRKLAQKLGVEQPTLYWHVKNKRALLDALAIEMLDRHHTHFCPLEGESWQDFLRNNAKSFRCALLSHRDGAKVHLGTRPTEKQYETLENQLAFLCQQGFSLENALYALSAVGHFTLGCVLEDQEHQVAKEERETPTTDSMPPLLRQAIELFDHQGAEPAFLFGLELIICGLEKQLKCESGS
Sequence TCCCTATCAGTAAAGGAGA returned a TetR repression strength of 0.319.
In turn, TCCCGGCCAGTGAGGGAGA gave a TetR repression strength of 0.268.
Under TCCCGGAGAGTTATTGAGA stands 0.278.
TCCCGACCAGTGGTAGAGA returned a TetR repression strength of 0.297.
As for TCCCCTCAAGTGGGTGAGA, the TetR repression strength is 0.24.
Take TCCCAACCAGTCTGGGAGA: the TetR repression strength came to 0.104.
In turn, TCCCAGGGAGTGACAGAGA had a TetR repression strength of 0.294.
For the sequence TCCCCGGTAGTTTTGGAGA, the TetR repression strength was found to be 0.253.
Consider TCCCCACTAGTAAGGGAGA, for which the TetR repression strength was determined as 0.266.
Under TCCCGAGCAGTGCGGGAGA stands 0.473; under TCCCGTGTAGTGCTGGAGA, 0.267.
As for TCCCTCGAAGTGCTGGAGA, the TetR repression strength is 0.281.
TCCCAGAGAGTAGCAGAGA: the TetR repression strength was 0.294.
TCCCAAAGAGTTTGGGAGA yielded a TetR repression strength of 0.357.
Take TCCCACTAAGTGTGAGAGA: the TetR repression strength stood at 0.253.
In turn, TCCCAGACAGTATTGGAGA gave a TetR repression strength of 0.299.
As for TCCCGTGCAGTTCGGGAGA, the figure is 0.295; as for TCCCCCGCAGTTCCAGAGA, 0.328.
As for TCCCCATCAGTTTGGGAGA, the figure is 0.269; as for TCCCGTCAAGTTGGAGAGA, 0.211.
The sequence TCCCTAGGAGTAGCGGAGA registered a TetR repression strength of 0.193.
TCCCAGATAGTTTATGAGA: the TetR repression strength amounted to 0.167.
TCCCTACTAGTCCTCGAGA: the TetR repression strength turned out to be 1.12.
TCCCGAGGAGTGATGGAGA came in with a TetR repression strength of 0.35.
As for TCCCGAACAGTGTAGGAGA, the figure is 0.0968; as for TCCCAAGGAGTTTCTGAGA, 0.319.
On to TCCCCGTCAGTCATGGAGA, for which the TetR repression strength came out at 0.12.
For TCCCCTCAAGTACGTGAGA, the TetR repression strength was found to be 0.227.
For the sequence TCCCATTTAGTGACGGAGA, the TetR repression strength stood at 0.255.
For the sequence TCCCAAGAAGTGGTTGAGA, the TetR repression strength turned out to be 0.184.
Consider TCCCGGGGAGTCGTTGAGA, for which the TetR repression strength was 0.482.
As for TCCCGACGAGTGATAGAGA, the figure is 0.619; as for TCCCGTAAAGTCTCCGAGA, 0.269.
With TCCCCGCTAGTTGGGGAGA, the TetR repression strength was determined as 0.0652.
Sequence TCCCGAAGAGTAGGTGAGA registered a TetR repression strength of 0.304.
With TCCCAACAAGTTGGGGAGA, the TetR repression strength amounted to 0.256.
Sequence TCCCGAACAGTTAATGAGA returned a TetR repression strength of 0.395.
Turning to TCCCAGCTAGTGTGGGAGA, the TetR repression strength amounted to 0.141.
In turn, TCCCAAGCAGTCCAAGAGA came in with a TetR repression strength of 0.513.
In turn, TCCCGCATAGTAATGGAGA returned a TetR repression strength of 0.384.
As for TCCCGGGCAGTTCGGGAGA, the figure is 0.23.
Under TCCCAGTCAGTAGGCGAGA stands 0.16.
As to TCCCTCGTAGTAAGCGAGA, the TetR repression strength amounted to 0.128.
Take TCCCTAGTAGTAAGGGAGA: the TetR repression strength was 0.196.
In the case of TCCCGACAAGTAGTGGAGA, the TetR repression strength is 0.347.
As to TCCCTCCGAGTAGGTGAGA, the TetR repression strength was 0.222.
Consider TCCCTATCAGTAGGGGAGA, for which the TetR repression strength was 0.529.
TCCCTATCAGTCCGGGAGA displayed a TetR repression strength of 0.445.
As for TCCCCGTAAGTTGTAGAGA, the TetR repression strength was found to be 0.111.
Regarding TCCCCCTCAGTGTCGGAGA, the TetR repression strength is 0.169.
As for TCCCAGTAAGTTCATGAGA, the TetR repression strength came out at 0.326.
Under TCCCAGGGAGTTCTGGAGA stands 0.274; under TCCCATACAGTCATTGAGA, 0.0677; under TCCCTGCAAGTGTGCGAGA, 0.0377.
Sequence TCCCGTCAAGTGTAGGAGA displayed a TetR repression strength of 0.138.
Under TCCCGAGTAGTTGTAGAGA stands 0.262; under TCCCGGAGAGTTGCGGAGA, 0.189; under TCCCAGGGAGTGAGAGAGA, 0.211.
As to TCCCGGCTAGTTCCGGAGA, the TetR repression strength was found to be 0.172.
In turn, TCCCCTGCAGTGCGCGAGA came in with a TetR repression strength of 0.0207.
TCCCACTGAGTGATTGAGA yielded a TetR repression strength of 0.279.
For TCCCCGGGAGTTGGAGAGA, the TetR repression strength was determined as 0.508.
The sequence TCCCTTGAAGTTGTCGAGA displayed a TetR repression strength of 0.0283.
In turn, TCCCGTGTAGTATAAGAGA returned a TetR repression strength of 0.212.
TCCCATGTAGTTTGGGAGA: the TetR repression strength came out at 0.203.
On to TCCCGGCGAGTGGGGGAGA, for which the TetR repression strength turned out to be 0.193.
As for TCCCATGGAGTGCGGGAGA, the figure is 0.415.
In turn, TCCCCAAGAGTATGGGAGA had a TetR repression strength of 0.124.
TCCCTTCCAGTGTTTGAGA came in with a TetR repression strength of 0.385.
In turn, TCCCATAGAGTTGAGGAGA registered a TetR repression strength of 0.138.
The sequence TCCCTCGGAGTAGTTGAGA displayed a TetR repression strength of 0.14.
As for TCCCATGAAGTTTTTGAGA, the TetR repression strength was determined as 0.0346.
Regarding TCCCTGTTAGTGATGGAGA, the TetR repression strength was 0.0597.
Turning to TCCCTATCAGTACGGGAGA, the TetR repression strength worked out at 0.226.
TCCCGGGTAGTACGGGAGA had a TetR repression strength of 0.0586.
As for TCCCTCCGAGTATTGGAGA, the figure is 0.261.
In the case of TCCCTGGCAGTGCGGGAGA, the TetR repression strength is 0.0871.
For the sequence TCCCGCGCAGTCGTAGAGA, the TetR repression strength is 0.241.
Regarding TCCCGGCAAGTGCATGAGA, the TetR repression strength was found to be 0.453.
In the case of TCCCAGTCAGTTAGAGAGA, the TetR repression strength was determined as 0.00901.
As for TCCCGTTCAGTTTGTGAGA, the TetR repression strength stood at 0.145.
In turn, TCCCGTGCAGTTACGGAGA gave a TetR repression strength of 0.183.
Regarding TCCCGGTGAGTACGGGAGA, the TetR repression strength worked out at 0.291.
In turn, TCCCGATGAGTGGGTGAGA registered a TetR repression strength of 0.203.
TCCCTGTTAGTGGACGAGA had a TetR repression strength of 0.343.
Under TCCCTTCTAGTTAAGGAGA stands 0.283.
TCCCTCTTAGTGATAGAGA showed a TetR repression strength of 0.345.
In the case of TCCCGTAGAGTAATGGAGA, the TetR repression strength came out at 0.344.
In the case of TCCCAGCTAGTGAAAGAGA, the TetR repression strength is 0.441.
Sequence TCCCAAAAAGTTTGGGAGA had a TetR repression strength of 0.095.
TCCCCTGTAGTCGGTGAGA displayed a TetR repression strength of 0.19.
Under TCCCCCCGAGTCGACGAGA stands 0.239; under TCCCGCGGAGTATTGGAGA, 0.191; under TCCCCGGTAGTTTGAGAGA, 0.302.
For the sequence TCCCGGCCAGTCGGTGAGA, the TetR repression strength came to 0.269.
The sequence TCCCATTAAGTCGGAGAGA came in with a TetR repression strength of 0.38.
In the case of TCCCGCTAAGTTCGGGAGA, the TetR repression strength is 0.246.
TCCCACTCAGTCCGGGAGA had a TetR repression strength of 0.204.
On to TCCCGACCAGTAAGAGAGA, for which the TetR repression strength turned out to be 0.138.
The sequence TCCCGATTAGTTTTCGAGA showed a TetR repression strength of 0.245.
Regarding TCCCAGCGAGTGGAGGAGA, the TetR repression strength stood at 0.172.
Turning to TCCCTTGGAGTCGTTGAGA, the TetR repression strength was 0.304.
